Laboratory results reported in the supplement of paper PMC10126150.
Values marked as one replicate rest on one cluster of the flow cell; about a third of the high ones do not repeat.

Tested on: ATP
Assay: switch fluorescence ratio, 500 uM ATP over buffer (Cy3 cluster intensity, sum of 5 cycles each) (fold (ratio)); higher = stronger signal-on switching upon ATP binding; sequences stand for … in TCGTCGGCAGCGTCAGATGTGTATAAGAGACAGTTTTTTTTTTTTTTTTTTTTTTTTT…TC
Conditions: aptamer strand: ATP DNA aptamer (quencher-CACCTGGGGGAGTATTGCGGAGGAAGG + anchor), 100 nM annealed; ATP concentration: 500 uM; one replicate
Summary of the method: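 Switching-strand clusters labelled with Cy3 on a modified Illumina MiSeq flow-cell were annealed to 100 nM quencher-labelled ATP aptamer, imaged in selection buffer, and re-imaged after 15 min with 500 uM ATP at 22 °C. This was done over five cycles with NaOH stripping and re-annealing in between. The fluorescence ratio is summed target-cycle over summed buffer-cycle Cy3 intensity per cluster, averaged per switch-domain sequence, excluding clusters outside 100-1000 RFU.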
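Further: ATP exposure 15 min at 22 °C before imaging.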

| Sequence | switch fluorescence ratio |
| --- | --- |
| GGTAAACGCT | 1.03 |
| GTTCTACGTT | 1 |
| GCACTCCGTC | 1.35 |
| TGTCGTGTGG | 0.995 |
| GAGCTACAGG | 1.01 |
| TCAAATAGTA | 0.997 |
| TACTATCGCC | 1.11 |
| TCTAATTCCA | 0.941 |
| AGTAGCTCGA | 1.03 |
| GAGGAAAGAG | 1.01 |
| AGCTCTATAT | 1.05 |
| ATTAAGGAT | 1.03 |
| AATGGGGAC | 1 |
| GTTTCTAACG | 1.03 |
| GAACTATGAT | 1.05 |
| GAAATGTTT | 1.02 |
| TATCGAATAT | 0.991 |
| TAGCTTAGTT | 1.01 |
| ACTTCTTTAT | 0.994 |
| TCGAAACTA | 0.988 |
| GTGTGCGTTG | 0.963 |
| ATTGGCACGA | 1.02 |
| ATGACAGGTT | 0.945 |

| Sequence | switch fluorescence ratio |
| --- | --- |
| ACATTGAAA | 1.03 |
| AAGCGACGAG | 0.976 |
| ATCATAGCCC | 1.04 |
| GCGCGTGAC | 1.06 |
| GTGGGGCTTT | 0.992 |
| TGTATGCCCC | 1.04 |
| AACTAAATTA | 1.03 |
| GGGGTCTTG | 1.02 |
| TTTGATTTAT | 1 |
| GATCTGCCCC | 1.02 |
| TCACGGTCCA | 1.01 |
| ATGAACTTTT | 0.991 |
| AGCACATTGC | 1.04 |
| GCTTAATTGA | 0.969 |
| CATCGTCGGT | 0.959 |
| TGGCCCCAAT | 1.05 |
| CACGGTGATG | 0.954 |
| TTCGCAACT | 1.29 |
| AGTTTCTAGC | 0.981 |
| ACCATAGGCG | 1.06 |
| GGCGACATC | 1.02 |
| CCGGAGCGGG | 2.9 |
| CGCGAATAGG | 1.03 |

| Sequence | switch fluorescence ratio |
| --- | --- |
| ACATATGGCG | 1.03 |
| GGGTTATATG | 0.967 |
| AGGGCGGAG | 0.973 |
| TGGTAATCTG | 0.958 |
| TAGGGCGCTG | 0.986 |
| TTATGGTTTC | 0.986 |
| TCTCTTTGAG | 1.03 |
| GGGGAATCTT | 0.991 |
| ATATGGGTGC | 1.01 |
| TGGGTCTTT | 1.49 |
| AGAAGAGGTT | 0.988 |
| CCTGTTGCAG | 1.08 |
| CCCTATGTCC | 1.02 |
| ATCGGGCTCG | 1.04 |
| ACTGTCACCA | 1.42 |
| AGGTGCCCCT | 1.04 |
| AATTCTGTGC | 1.12 |
| CATTCAGTCT | 1.03 |
| TTTGTGGTGA | 0.961 |
| TAGTGGGTCA | 1.02 |
| TCATGAGTAT | 1.01 |
| TCTAAATATG | 0.994 |
| GATGATGTGA | 0.968 |

| Sequence | switch fluorescence ratio |
| --- | --- |
| AAAGCGGTGT | 0.959 |
| AGCATTGCTT | 0.981 |
| TTTTAGCCGT | 1.07 |
| TTGGGACGAT | 1.05 |
| TCAATTTCTC | 1.02 |
| ATTTTCCTAG | 1.01 |
| AAGATTGTG | 0.974 |
| TACTCAGTT | 1.04 |
| GATGAGTTAA | 1.03 |
| TATTGAGCGC | 1.03 |
| GCCGGCAGTG | 0.937 |
| CGTAAAAATT | 0.989 |
| TTCTGCCGAG | 1.13 |
| TCCATTAGAG | 1 |
| GATGAATGAA | 0.996 |
| TACCAGGCCT | 0.997 |
| AACAGTCTT | 1.02 |
| ACGACCAAAT | 1.29 |
| GTTGCTGCAT | 1.04 |
| CACGGGACAT | 1.2 |
| ATGGTTCTAG | 0.982 |
| TGCGCGGTTG | 1.02 |
| TAGTTAGTTA | 0.991 |

| Sequence | switch fluorescence ratio |
| --- | --- |
| ATAGTCGGT | 0.961 |
| ATGTGAGCGA | 1.03 |
| GGGTTGGTCC | 0.99 |
| TTTCGGGAAC | 1.05 |
| CTTTGCTGGA | 1.05 |
| GGCGGTCCCC | 1.02 |
| GATATGCTCA | 0.995 |
| AGGGATGGAT | 0.917 |
| GAATGAGAGC | 1.01 |
| ACAAATAAGT | 0.939 |
| TTATTTGGCA | 0.987 |
| CTTCATTTAG | 1.03 |
| ATGTAGATAC | 1.16 |
| GTTGAGTCTG | 0.993 |
| CTCCGGATCC | 1.59 |
| ACGTGCGGTA | 0.995 |
| GTGTTACTGG | 1.03 |
| AAAAGGCAGG | 0.992 |
| CCGGGAGCTG | 1.15 |
| GTGGTCGCTA | 0.997 |
| GCTTCATGCG | 0.981 |
| TAAGATCTTT | 0.995 |
| CTCGGTTATC | 1.19 |

| Sequence | switch fluorescence ratio |
| --- | --- |
| TGCGAGCAAG | 1.02 |
| TATTGAGGTT | 1.06 |
| TCGGTATTCA | 0.995 |
| TTAGGAGAGT | 0.974 |
| TAGTTAAGTG | 0.97 |
| TATATCCGGG | 0.975 |
| TAAGTAGCTA | 1 |
| AAAGTTGTGC | 1.03 |
| AGGTAGGTAC | 0.982 |
| TTCGCGGTAT | 1.08 |
| GGTGGGTTT | 1.01 |
| AGTCCCGCTT | 1.16 |
| TAATCGTACC | 1.08 |
| AGGGACTGAA | 1.03 |
| GGTGAAACTT | 1.04 |
| CGGTTCTAGG | 0.997 |
| GAGGTCTAAT | 1.01 |
| GTTACTACTC | 1.06 |
| AGTGTTAGG | 1.01 |
| GGCGGGCCTG | 1 |
| TAACGACGAT | 1.05 |
| GGTTACGTTC | 1.02 |
| GTTCCGGGCG | 0.975 |

| Sequence | switch fluorescence ratio |
| --- | --- |
| TGTTTAGAAT | 0.971 |
| AGGGTTGCG | 1.03 |
| GGGGACGTCC | 0.98 |
| GGCATCCGTG | 1.02 |
| TTTGTTAGTA | 0.991 |
| TCTGCTTCGT | 1.03 |
| CGGTGTCGAA | 1.01 |
| TTGCGTGCTG | 0.985 |
| ACCCTAGGTC | 1.12 |
| TGGTTCCACA | 1.04 |
| GAATAAGGGT | 1 |
| ATAGTAGTGC | 1.05 |
| TACTCGTGTA | 1.02 |
| GAAGATTGCG | 0.994 |
| CTGAGTGAGC | 1.05 |
| CCCACGTTTT | 1.05 |
| TTTTATGCA | 0.998 |
| AGGCAAATAT | 1.03 |
| GTTAGATGCC | 0.993 |
